# Measurements published in PubChem BioAssay AID1347120 (National Center for Advancing Translational Sciences (NCATS), 2019).
# In all, about 390,000 compounds went through this assay and about 930 (0.24%) were called active. Inconclusive results, whose numbers are uncertain, are shown with a selection of clear calls. Calls come from the whole dose curve; as a rule, active = well fitted activation curve with a large enough effect; inconclusive = small, poorly fitted or top-dose-only effect; inactive = no such curve, though single readings can be large or run the other way. Where the call is inconclusive, the potency comes from a doubtful curve fit.
# Experiment: qHTS for Suppressors of FUS Proteinopathy: Primary screen using FUS-linked yeast assay; note: nearly all actives have a fitted effect of over 55% in size;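 for growth rescue (activation): plate controls were DMSO vehicle for no effect and reference control for full effect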
# Conditions: S. cerevisiae FUS-expressing, OD600, 24 h; Potency: growth rescue; growth rescue (activation): at 76.6 µM (top of the series)
# How it was run: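 Restored growth of FUS-toxic S. cerevisiae, read as 600 nm absorbance after 24 h at 30C in galactose medium (starting OD 0.005). Controls CP55940 and DMSO.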
# Potency is the fitted concentration of half-maximal effect; tags give direction and shape of the fitted curve.
Structure (SMILES),Potency,growth rescue (activation)
COC(=O)C1=C(C)NC(=O)/C1=C\c1cc(C)n(-c2cccc(C)c2)c1C,"inconclusive: 28.2 µM [activator, single point]",
Cc1cccc(Nc2nc(N)c([N+](=O)[O-])c(N3CCN(C)CC3)n2)c1,inactive,
Nc1nc(CSc2nnnn2-c2ccccc2)nc(N2CCCc3ccccc32)n1,"inconclusive: 31.6 µM [activator, single point]",
O=C(Nc1ccc(Cl)cc1)Nc1ccc(Cl)c(Cl)c1,inactive,
O=C(NC1CC(=O)N(c2ccccc2)C1)c1cc2ccccc2o1 (centres undefined),inactive,
COc1ccc(-c2ccc(SCC(=O)NCc3ccc4c(c3)OCO4)nn2)cc1OC,"inconclusive: 0.794 µM [activator, full curve, poor fit]",
CN(C)c1ccc(C(CN)c2c[nH]c3ccccc23)cc1 (centres undefined),"inconclusive: 28.2 µM [activator, single point]",
COc1cccc(NC(=O)CN(C)C(=O)c2cn(-c3ccccc3)nc2-c2cccs2)c1,"inconclusive: 50.1 µM [activator, single point]",
CC(C)Cn1c(-c2ccc(S(=O)(=O)N3CCCC3)cc2)csc1=Nc1ccccc1,"inconclusive: 35.5 µM [activator, single point]",
NC(=O)CC[C@@H]1NC(=O)[C@H](CO)NC(=O)c2cc([N+](=O)[O-])cc(I)c2NCCCC[C@@H](C(N)=O)NC(=O)[C@H](Cc2ccc(O)cc2)NC1=O,"inconclusive: 22.4 µM [activator, single point]",
Cc1ccc(NC(=O)CSc2nnc(-c3ccccc3F)n2-c2ccccc2)c(C)c1,inactive,
Cc1nc2cc3ccccc3cc2s1,"inconclusive: 50.1 µM [activator, single point]",
O=C1COc2ccc(C(=O)COC(=O)Cn3cnc4ccccc43)cc2N1,,inconclusive: 69.7% [activator]
COc1ccc(-c2c(NC(C)=O)n(C)c3ccccc3c2=O)cc1,"inconclusive: 3.55 µM [activator, partial curve, poor fit]",
Cc1c(NC(=O)/C(=C\c2ccccc2)NC(=O)c2ccccc2)c(=O)n(-c2ccccc2)n1C,"inconclusive: 11.2 µM [activator, single point]",
COc1ccc(NC(=S)N(Cc2cccc(Br)c2)CC2CCC(C(=O)O)CC2)cc1 (centres undefined),"inconclusive: 50.1 µM [activator, single point]",
CC(=O)Nc1ccc(C(=O)CSc2nnc(Cc3ccccc3)o2)cc1,"inconclusive: 11.2 µM [activator, single point]",
O=C(Cn1nnc(-c2ccc(S(=O)(=O)N3CCCC3)cc2)n1)NCC1CCCO1 (centres undefined),,inconclusive: 1.5% [activator]
CCOc1ccccc1Nc1nc(-c2ccc(C)cc2)c(CC(=O)O)s1,inactive,
CCn1c(SC2CCOC2=O)nnc1-c1ccc(Cl)cc1 (centres undefined),"inconclusive: 22.4 µM [activator, single point]",

Structure (SMILES),Potency,growth rescue (activation)
COc1cccc(CNC(=O)CN2C(=O)N(c3c(C)cccc3C)S(=O)(=O)c3ccccc32)c1OC,"inconclusive: 25.1 µM [activator, partial curve, poor fit]",
CCOc1ccc(S(=O)(=O)N(C(=O)c2ccco2)c2cc3sc(=O)oc3c3ccccc23)cc1,"inconclusive: 3.98 µM [activator, full curve]",
CCCn1nc(C(=O)Nc2ccc(S(=O)(=O)Nc3nccs3)cc2)c2ccccc2c1=O,"inconclusive: 50.1 µM [activator, single point]",
COCCn1nnnc1CN(Cc1ccco1)Cc1cc2cc3c(cc2[nH]c1=O)OCO3,"inconclusive: 35.5 µM [activator, partial curve, poor fit]",
O=c1c2ccccc2nnn1CCc1ccccc1,inactive,
O=C1C2C3C=CC(C3)C2C(=O)N1c1nccs1 (centres undefined),inactive,
C=CCNC(=S)NNC(=O)c1ccc(OCC(C)C)cc1,"inconclusive: 22.4 µM [activator, partial curve, poor fit]",
CC1=C(C(=O)N2CCOCC2)CC(CC(=O)NC(c2ccccc2)c2ccccc2)C(=O)N1Cc1ccc(C(C)(C)C)cc1 (centres undefined),"inconclusive: 50.1 µM [activator, single point]",
Cc1ccc2nc(N3C(=O)C(O)=C(C(=O)c4ccc(C)o4)C3c3cccc(O)c3)sc2c1 (centres undefined),inactive,
C#Cc1ccc([C@H]2C=C(C(=O)O)O[C@@H](OCCCCO)C2)cc1,"inconclusive: 35.5 µM [activator, single point]",
CC(=O)Nc1cc(-c2ccc(C(=O)N3CCOCC3)cc2)cn2c(-c3ccc(C(C)=O)cc3)cnc12,"inconclusive: 25.1 µM [activator, single point]",
Cc1cccc(CNC(=O)CN2C(=O)C3CCCCN3c3ccc(C(=O)N4CCCC4)cc32)c1 (centres undefined),inactive,
CCOC(=O)c1c(C)oc2c1c(C=NCCC(=O)O)c(O)c1ccccc12,"inconclusive: 35.5 µM [activator, partial curve, poor fit]",
COC(=O)c1cccc(C#CC(NP(=O)(c2ccccc2)c2ccccc2)c2ccccc2)c1 (centres undefined),"inconclusive: 28.2 µM [activator, single point]",
COc1ccc(CCNC(=O)NC23CC4CC(CC(C4)C2)C3)cc1OC,"inconclusive: 12.6 µM [activator, partial curve, poor fit]",
COc1ccc(CCNS(=O)(=O)c2ccc(F)c(C(=O)Nc3ccc(Cl)cc3)c2)cc1OC,"inconclusive: 39.8 µM [activator, single point]",
Cc1ccc(-c2nnc(Nc3ccc(Cl)c(Cl)c3)c3ccccc23)cc1S(=O)(=O)N(C)C,"inconclusive: 35.5 µM [activator, single point]",
CN(C(=O)c1cccc(NC(=O)Cc2ccc(NC(=O)C3CCN(C(=O)C4CCCCC4)CC3)cc2)c1)C1CCCCC1,"inconclusive: 44.7 µM [activator, single point]",
COc1ccc(C(C(=O)Nc2c(C)cccc2C)n2c(=O)c(-c3ccccc3)nc3ccccc32)cc1 (centres undefined),"inconclusive: 39.8 µM [activator, single point]",
